Results: PubChem BioAssay AID1159614 (National Center for Advancing Translational Sciences (NCATS), 2016)
The campaign covered roughly 45,000 compounds. About 65 (0.1%) were called active. Calls come from the whole dose curve; as a rule, active = well fitted activation curve with a large enough effect; inconclusive = small, poorly fitted or top-dose-only effect; inactive = no such curve, though single readings can be large or run the other way. The list shows a part of the results.

biological target: Galactocerebrosidase (Homo sapiens) (UniProt P54803); assay: A Novel Cell-Based Assay to Identify Small Molecules for B -Galactocerebrosidase; conditions: 145M-Twi-hGALC-G270D cells (Twitcher mouse brain line with human GALC G270D), HMU-beta-Gal fluorescence, 48 h; series mostly up to 57.5 µM; activation: at the top concentration; note: 0% is about no effect; nearly all actives have a fitted effect of over 65% in size
Summary of the method: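 Live 145M-Twi cells (Twitcher mouse brain-derived, GALC-null) stably expressing human GALC-G270D, with a wild-type GALC line, were compound-treated. Residual GALC activity was then read as fluorescence from 0.1 mM final HMU-β-gal at pH 5.2; higher signal means activation.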

Chain of UniProt P54803 (P54803 whole entry, looked up): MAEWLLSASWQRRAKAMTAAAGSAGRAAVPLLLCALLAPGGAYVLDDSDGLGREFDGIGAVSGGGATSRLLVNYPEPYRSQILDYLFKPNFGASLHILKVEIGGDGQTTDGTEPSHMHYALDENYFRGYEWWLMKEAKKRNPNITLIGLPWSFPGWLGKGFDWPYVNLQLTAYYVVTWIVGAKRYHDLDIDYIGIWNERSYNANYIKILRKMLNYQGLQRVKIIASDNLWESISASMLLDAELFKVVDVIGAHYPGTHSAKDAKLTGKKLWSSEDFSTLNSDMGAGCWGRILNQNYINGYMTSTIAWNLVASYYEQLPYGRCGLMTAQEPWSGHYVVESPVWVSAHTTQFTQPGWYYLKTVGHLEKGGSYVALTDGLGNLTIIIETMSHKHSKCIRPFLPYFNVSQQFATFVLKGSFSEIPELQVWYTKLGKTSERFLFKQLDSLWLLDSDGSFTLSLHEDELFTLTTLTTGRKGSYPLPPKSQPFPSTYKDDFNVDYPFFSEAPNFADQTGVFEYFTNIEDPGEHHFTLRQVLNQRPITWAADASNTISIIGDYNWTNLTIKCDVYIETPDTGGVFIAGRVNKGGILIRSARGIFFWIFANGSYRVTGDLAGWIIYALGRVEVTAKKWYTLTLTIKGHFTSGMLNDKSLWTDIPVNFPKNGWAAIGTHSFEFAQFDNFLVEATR

activation, inactive:
COc1ccccc1N1CCN(S(=O)(=O)c2c(C)nc3sccn3c2=O)CC1 -1.24%, Cc1ccc(S(=O)(=O)c2c(O)cc(C)c(NS(=O)(=O)c3ccc(Cl)cc3)c2C)cc1 -13.4%, CC(C)c1nn2c(=O)cc(COC(=O)c3ccco3)nc2s1 -1.95%, CCCCCCCCCCCCCCCCCC(=O)OCC(O)CO (stereo unspecified) -14.7%, Cc1nn2c(C)c(C(=O)NC(C)(C)C)cnc2c1-c1ccc(F)cc1 -11.7%, O=C(CSc1nc(=O)[nH]c2c1CCCC2)NCc1ccccc1 -9.94%, COc1ccc(N2C(=O)CSC23C(=O)N(CC(=O)NCCc2ccccc2)c2ccccc23)cc1 (stereo unspecified) -21.9%, COc1ccccc1C(=O)Nc1ccc(C(=O)OCc2cc(=O)n3nc(C4CC4)sc3n2)cc1 -20%, CCCCNC(=O)c1cc2n(n1)CCCN(Cc1ccc(C)cc1)C2=O 6.96%, CCOc1ccc(C(=O)Nc2ccc3oc(-c4ccc5ccccc5c4)nc3c2)cc1 -4.5%, COc1ccc(NC(=O)Cn2c(=O)n(Cc3ccccc3)c(=O)c3sc4ccccc4c32)cc1 -11%, CCc1ccc(Cn2c(CNS(=O)(=O)c3ccc(C)c(C)c3)nc3cccnc32)cc1 2.6%, Cc1ccc(N2CC(NC(=O)c3cc4ccccc4o3)CC2=O)cc1 (stereo unspecified) 0.0361%, CCc1nc2nc(C)cc(Nc3cc(C)ccc3C)n2n1 -12.2%, CCOC(=O)c1ccc(NC(=O)Cn2nc(C)c3nn(-c4ccc(Cl)cc4)c(C)c3c2=O)cc1 -7.66%, CCOC(=O)c1c(NC(=O)C(C)Sc2cn(CCNC(=O)c3ccc(OCC)cc3)c3ccccc23)sc2c1CCC2 (stereo unspecified) -8.16%, Cc1cccc(N2CCN(C(=O)c3cnn(-c4ccccc4)c3C3CCN(C(=O)OC(C)(C)C)CC3)CC2)c1C 3.58%, CCOC(=O)c1c(S(=O)(=O)N2CCC(C(=O)NCc3ccccc3Cl)CC2)c(C)n(C)c1C -15.1%, COc1ccc(N2CC(NC(=O)C(c3ccccc3)c3ccccc3)CC2=O)cc1 (stereo unspecified) 8.41%, COc1cccc(CNC(=O)c2ccc3c(c2)sc2nc(-c4cccc(OC)c4)cn23)c1 -15.1%, COCCn1ccc2c(OCC(=O)Nc3cccc(C(F)(F)F)c3)cccc2c1=O -12.1%, Cc1nc2nc[nH]n2c(=O)c1NS(=O)(=O)c1ccc(Br)cc1 3.64%, CC(c1cc2ccccc2s1)N(O)C(N)=O (stereo unspecified) -10.4%, Clc1ccc(CSc2nncn3c2cc2occc23)cc1 -6.78%, Cc1ccc(Nc2ncnc3c2nc2n3CCCC2)cc1F -1.53%, CC1=C(c2ccc(Cl)cc2)S(=O)(=O)N=C1N1CCN(c2cc(C)ccc2C)CC1 -27.4%, COc1ccc2sc(N(Cc3cccnc3)C(=O)CCc3ccccc3)nc2c1 5.85%, Cc1cc2[nH]c(=O)c(=O)[nH]c2cc1S(=O)(=O)N1CCN(c2ccccc2F)CC1 -9.41%, Cc1cccc(N(C)S(=O)(=O)c2ccc3c(c2)NC(=O)CC(=O)N3)c1 -11.6%, COc1ccc(CNC(=O)C(=O)NCC(c2cccnc2)N2CCN(c3ccccc3)CC2)cc1 (stereo unspecified) -8.55%, Cc1cc(C)cc(-n2c(SCC(=O)Nc3ccc4c(c3)OCO4)nc3c([nH]c4ccccc43)c2=O)c1 2.89%, COc1cccc(Cn2c(=O)n(Cc3ccccc3)c(=O)c3c2c2cc(OC)ccc2n3C)c1 -0.869%, CCCN1CCCc2cc(CN(CCCN3CCOCC3)C(=O)Nc3ccc(Cl)c(Cl)c3)ccc21 -10.7%, CCc1ccc(NC(=O)CNC(=O)Cn2c(C)cc3ccccc3c2=O)cc1 -11%, Clc1ccc(-c2cn3cc(Cc4ccccc4)sc3n2)cc1 -0.102%, CCOc1ccc(CCNC(=O)c2ccc(CSCc3ccccc3C)o2)cc1OCC -6.43%, O=C(CSc1nc(=O)n(Cc2ccncc2)c2c1CCC2)Nc1cccc(F)c1 -14.9%, CC[C@@]1(O)C(=O)OCc2c1cc1n(c2=O)Cc2c-1nc1ccccc1c2/C=N/OC(C)(C)C -16.9%, COC(=O)c1c(NC(=O)c2ccc(C(C)(C)C)cc2)sc2c1CCC(C)C2 (stereo unspecified) -6.83%, CCN(C(=O)Cn1nc(Cc2ccncc2)c2ccccc2c1=O)c1ccc(OC)cc1 -10.7%, CCOC(=O)c1c(NC(=O)COc2ccccc2)sc(C(C)=O)c1C -15.4%, COc1cc(C2CC(=O)c3c([nH]c(C(=O)OC4CCCC4)c3C)C2)cc(OC)c1OC (stereo unspecified) -18.2%, CC1(C)CC(=O)c2cc(-c3nc(-c4ccc(F)cc4)cs3)c(=O)[nH]c2C1 -7.25%, CCN(C(=O)C(NS(=O)(=O)c1ccc(Br)s1)c1ccccc1)c1ccc(C)c(C)c1 (stereo unspecified) -10.4%, CCOc1ccc(NC(=O)c2c(NCc3cc(OC)c(OC)cc3OC)sc3c2CCCC3)cc1 -41.1%, CCC(=O)N1c2ccccc2CC1C(=O)NCCN1CCN(c2cc(Cl)ccc2C)CC1 (stereo unspecified) -23.5%, COc1ccc(C)cc1NC(=O)Cn1cc(S(=O)(=O)N2CCC(C)CC2)c2ccccc2c1=O -11%, Cc1cc(C)cc(OCC(=O)N2CCC(c3nc4ccccc4o3)CC2)c1 -3.65%, COC(=O)c1ccccc1NC(=O)C(Cc1ccccc1)N1Cc2ccccc2C1=O (stereo unspecified) -13.5%, O=C(Cc1ccc(Cl)cc1)Nc1ccc2oc(-c3ccc(F)cc3)nc2c1 4.41%, N#C/C(=C\c1ccc(F)cc1)c1nc(-c2ccc(-c3ccccc3)cc2)cs1 -18.2%, CCCC1=Nc2cc(C(=O)NC3CCCCC3)ccc2Sc2ccc(C)cc21 -34.8%, Cc1cc(C)c2c(=O)c3c(oc2c1)C(=O)N(CCCOC(C)C)C3c1ccccc1F (stereo unspecified) 1.81%, COc1cccc(CC(=O)Nc2c(C(=O)N3CCN(c4ccccc4F)CC3)oc3ccccc23)c1 -19.6%, COCCCNc1nc2c(c(=O)[nH]c(=O)n2C)n1CC(O)COc1ccc(Cl)cc1 (stereo unspecified) -9.5%, CC(=O)Nc1ccc(S(=O)(=O)NCC2CCC(C(=O)NCCc3ccc(C)cc3)CC2)cc1 (stereo unspecified) 5.55%, COc1ccc(NC(=O)Cn2c(-c3ccc(F)cc3)cc(C(C)=O)c2C)c(OC)c1 -20.4%, CC(=O)c1cccc(NC(=O)c2ccc3c(c2)N(Cc2ccc(C)cc2)CCS3)c1 -13.2%, COc1ccc(CCNC(=O)Cn2c(=O)nc(-c3ccccc3)c3cc(Cl)ccc32)cc1OC -20.7%, Cc1ccc(C)c(N2CCN(CCCNC(=O)c3ccc4nc(N5CCC(C)CC5)sc4c3)CC2)c1 -11.2%, COc1cc2c(cc1OC)C(CC(=O)O)N(C(=O)Nc1cc(OC)c(OC)c(OC)c1)CC2 (stereo unspecified) -15.4%, CCc1ccc(C2=NN(CCC(=O)NCCc3ccccc3)C(=O)CC2)cc1 -6.66%, COc1ccc(N(CC(=O)NCCc2ccccc2)S(=O)(=O)c2c(C)nn(C)c2C)cc1 -15.4%, CCc1cccc(NC(=O)C(Cc2ccccc2)NS(=O)(=O)c2cccs2)c1 (stereo unspecified) -25.8%, COc1ccc(-n2c(=O)c3c4c(sc3n(Cc3ccccc3C)c2=O)CCCC4)c(OC)c1 -10.3%, CC(=O)c1ccc(Nc2cc(C)nc3nc(Cc4ccccc4)nn23)cc1 0.703%, CCOc1ccc(C(=O)NCCc2csc(-c3cccc(C)c3)n2)cc1 -9.91%, CC(C)c1ccc(Nc2sc(C(=O)c3ccccc3)c(N)c2S(=O)(=O)c2ccccc2)cc1 -8.67%, CCc1nc2ccc(C(=O)N3CCN(c4cccc(Cl)c4)CC3)cc2nc1CC -12.9%, CC(C)CC(=O)Nc1nnc(S(=O)(=O)N2c3ccccc3CC2C)s1 (stereo unspecified) -10.3%, CCC1(C)CC(=O)c2c(ccc3oc(C(=O)Nc4ccc(C(C)=O)cc4)c(C)c23)O1 (stereo unspecified) -16.4%, Cc1ccc(N2CCN(C(=O)Cn3ncc4c([nH]c5ccc(C)cc54)c3=O)CC2)c(C)c1 -6.84%, NS(=O)(=O)c1ccc(NC(=O)CCC(=O)O)cc1 -14.3%, CCCn1c2ccccc2c2cnn(CC(=O)Nc3cc(OC)c(OC)c(OC)c3)c(=O)c21 -1.69%, COc1ccc(-c2cc3ccc(O)c(CN4CCN(C)CC4)c3oc2=O)cc1OC -24%, COc1cc(CNC(=O)c2cnc3c(-c4cccc(C)c4)c(C)nn3c2C)cc(OC)c1OC -16.7%, CCc1ccc(C(=O)COC(=O)C(NC(=O)C2CCC(C)CC2)C(C)C)cc1 (stereo unspecified) -14.5%, CCN(c1ccccc1)S(=O)(=O)c1ccc(NC(=O)c2nc(S(C)(=O)=O)ncc2Cl)cc1 -17.8%, CCOCCOC(=O)c1ccc2c(c1)N(Cc1ccccc1C#N)C(=O)c1ccccc1S2(=O)=O -11.9%, CCOc1ccc(CCNC(=O)CCCn2c(=O)c3cccn3c3cccnc32)cc1 -6.84%, Nc1cc(=O)nc(SCC(=O)Nc2ccccc2)n1CCc1ccccc1 -15.3%, CC(=O)Nc1ccc(Nc2ccc3cc(S(=O)(=O)N4CCCCC4)ccc3n2)cc1 -2.21%, O=C(NC1CC(=O)N(c2ccc(Cl)cc2)C1)c1cc2ccccc2o1 (stereo unspecified) -6.2%, CCCc1ccc(OCC(=O)Nc2sc3c(c2C(=O)OCC)CCC(C(C)(C)C)C3)cc1 (stereo unspecified) -14.4%, CC(=O)Oc1cc(C(C)C)c(OCCN(C)C)cc1C -9.82%, Cc1ccc2nc3c(cc(C(=O)NC4CCCC4)c(=N)n3C(C)C)c(=O)n2c1 -4.01%, O=c1c2cccnc2n(Cc2cccc(F)c2)c(=O)n1Cc1ccc(F)cc1 -16.1%, CCC(Nc1ccc(-c2nc(-c3cccnc3)no2)cc1[N+](=O)[O-])c1ccccc1 (stereo unspecified) -15.7%, COc1ccc2[nH]cc(CCNC(=O)Nc3cc(C)cc(C)c3)c2c1 -16.9%, COc1ccccc1Nc1nc(-c2ccccc2)c(CC(=O)O)s1 -11.8%, COc1ccc2c(c1)c1c(c(=O)n(-c3cccc(C)c3)c(=O)n1CC(=O)NCCC1=CCCCC1)n2C -4.98%, CCOC(=O)c1c(-c2ccc(OC)c(OC)c2)csc1NC(=O)c1ccccc1F -9.73%, Cc1cccc(CNS(=O)(=O)c2ccc(-c3coc(C)n3)cc2)c1 -35.1%, CCOC(=O)c1cc(-c2ccc(OC)c(S(=O)(=O)N3CCN(c4ccccc4)CC3)c2)on1 -11.8%, COc1ccc(S(=O)(=O)c2nnn(-c3cccc(Cl)c3)c2N)cc1 -39.3%, Cc1ccccc1OCC(=O)Nc1ccc2nc(SCC(=O)N3CCCC3)sc2c1 -12%
